The supplement of paper PMC5919970
Structures can show the parent of a compound that is named as a salt. The full ranking holds about 2,000 compounds; the median of “fractional viability relative to vehicle” is about 0.92, and the lowest 2% start at about 0.11. Some of the results follow.

System: TYKNU
Test: fractional viability relative to vehicle; TYKNU is a high-grade serous ovarian cancer line; higher = less growth inhibition
Conditions: 72 h, genotype: OPA1 knockout (sgOPA1 #2)
In short: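 TYKNU control cells or lentiCRISPRv2 knockout derivatives were seeded at 500 cells per well into drug-stamped 384-well plates holding a ~2100-compound library at 2 or 10 μM, in duplicate. Cells were grown at 37 °C in 5% CO2 in RPMI 1640 with 10% FBS, and drug treatment lasted 72 h. Viability was read by Cell Titer Glo luminescence. Duplicate treatment wells were averaged and normalised to duplicate control wells from the same plate position.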

SMILES	fractional viability (2uM)	fractional viability (10uM)
COc1ccccc1-c1cc(Nc2cccc(CS(N)(=O)=O)c2)ncn1	0.952	0.201
N=C(N)N [Guanidine HCl]	1.17	0.921
Cc1c(C(N)=O)cc([N+](=O)[O-])cc1[N+](=O)[O-] [Dinitolmide]	1.05	0.794
COc1cc(/C=C/C(=O)N2CCC=CC2=O)cc(OC)c1OC [Piperlongumine]	0.31	0.085
CCc1nc(-c2cccc(C)c2)c(-c2ccnc(NC(=O)c3ccccc3)c2)s1	1.05	0.807
Cc1cccc(C)c1NC(=O)C1CCCCN1C (stereo unspecified) [Mepivacaine HCl]	0.998	0.962
CN1C(C(=O)Nc2ccccn2)=C(O)c2sccc2S1(=O)=O [Tenoxicam]	1.06	1.09
Cc1ncc([N+](=O)[O-])n1CC(O)CCl (stereo unspecified) [Ornidazole]	1.21	1.61
FC(F)(F)c1ccc(CNc2ccc(Cc3c[nH]c4ncc(Cl)cc34)cn2)cn1 [Pexidartinib (PLX3397)]	0.884	0.953
O=C(Nc1ccccc1)c1ccccc1O [Salicylanilide]	0.98	1.04
Cn1c(=O)c2[nH]cnc2n(C)c1=O [Aminophylline]	1.04	0.967
CS(=O)(=O)c1ccc(C2=C(c3ccccc3)C(=O)OC2)cc1 [Rofecoxib]	0.94	1.03
CC(=O)c1cc([N+](=O)[O-])c(Sc2cccc(Cl)c2Cl)s1	0.895	0.2
Cc1ccnc2c1NC(=O)c1cccnc1N2C1CC1 [Nevirapine]	1.05	1.14
CN(C)CCC=C1c2ccccc2CCc2ccccc21 [Amitriptyline HCl]	1.04	0.895
Cc1[nH]c(=O)c(C#N)cc1-c1ccncc1 [Milrinone]	1.06	0.966
CC(C)[C@H](CO)Nc1nc(Nc2cccc(Cl)c2)c2ncn(C(C)C)c2n1 [Purvalanol A]	0.818	0.388
NC(=O)c1ncn([C@@H]2O[C@H](CO)[C@@H](O)[C@H]2O)n1 [Ribavirin]	1.06	0.804
O=C(NCc1ccncc1)C12CC3CC(C1)CC(c1ccc(Cl)cc1)(C3)C2	1.06	0.861
CCOC(=O)[C@H](CCc1ccccc1)N[C@@H](C)C(=O)N1[C@H](C(=O)O)C[C@@H]2CCC[C@@H]21 [Ramipril]	1.04	0.89
Cc1ccc(S(=O)(=O)n2c(N)nc3ccccc32)cc1 [ML130 (Nodinitib-1)]	1.22	0.875
NCC(=O)Nc1ccc(-n2nc(C(F)(F)F)cc2-c2ccc3c(ccc4ccccc43)c2)cc1	0.93	0.174
COc1ccc(-c2nc3cc(C4=NNC(=O)CC4C)ccc3[nH]2)cc1 (stereo unspecified) [Pimobendan]	0.78	0.946
NS(=O)(=O)c1cc2c(cc1Cl)N=CNS2(=O)=O [Chlorothiazide]	1.1	1.15
COc1ccc(-c2cnc3c(-c4cccc5ncccc45)cnn3c2)cc1	1.15	1.2

SMILES	fractional viability (2uM)	fractional viability (10uM)
CNS(=O)(=O)Cc1ccc2[nH]cc(CCN(C)C)c2c1 [Sumatriptan Succinate]	1.06	1.19
O=c1c(O)c(-c2ccc(O)c(O)c2)oc2cc(O)ccc12 [Fisetin]	1.06	0.956
COc1cc2ncnc(Oc3cccc(NC(=O)Nc4cc(C(C)(C)C(F)(F)F)on4)c3)c2cc1OC	0.807	0.778
O=C(COc1ccc(Cl)cc1)NC1CCC(NC(=O)COc2ccc(Cl)cc2)CC1 (stereo not drawn) [ISRIB (trans-isomer)]	1.09	0.976
CC1=C(C(=O)OC(C)C)C(c2cccc([N+](=O)[O-])c2)C(C(=O)OC2CN(C(c3ccccc3)c3ccccc3)C2)=C(N)N1 (stereo unspecified) [Azelnidipine]	0.87	0.597
Cc1cc(C2CCCCC2)n(O)c(=O)c1 [Ciclopirox ethanolamine]	0.773	0.482
Cc1cc(C2CCCCC2)n(O)c(=O)c1 [Ciclopirox]	0.726	0.519
COc1cc(C(=O)NS(=O)(=O)c2ccccc2C)ccc1Cc1cn(C)c2ccc(NC(=O)OC3CCCC3)cc12 [Zafirlukast]	1.1	1.1
CN[C@H]1CN(c2ccc3c(=O)c(C(=O)O)cn(-c4nccs4)c3n2)C[C@@H]1OC [Voreloxin (SNS-595)]	0.699	0.63
CCc1cncnc1N1CCN(Cc2nc3ccc(C(F)(F)F)cc3[nH]2)CC1	0.848	0.869
O=C(O)c1cc(=O)c2ccccc2o1 [Chromocarb]	0.872	0.816
NS(=O)(=O)c1cc(C(=O)O)c(NCc2ccco2)cc1Cl [Furosemide]	1.16	1.16
CCOc1cc([C@@H](CS(C)(=O)=O)N2C(=O)c3cccc(NC(C)=O)c3C2=O)ccc1OC	0.859	0.899
CC(C)C[C@@H]1NC(=O)[C@@H](C(C)C)NC(=O)[C@@H]2CCCN2C(=O)[C@@H](CC(=O)O)NC(=O)[C@@H](Cc2c[nH]c3ccccc23)NC1=O	0.722	0.866
CN(C)C(=O)COC(=O)Cc1ccc(OC(=O)c2ccc(NC(=N)N)cc2)cc1 [Camostat Mesilate]	1.03	0.994
N=C(N)NC(=O)c1nc(Cl)c(N)nc1N [Amiloride HCl]	1.01	0.973
Nc1ccccc1NC(=O)c1ccc(CNC(=O)OCc2cccnc2)cc1 [Entinostat (MS-275)]	0.478	0.242
CCCCOc1c(C(=O)c2c(F)cc(C)cc2F)c[nH]c2nncc1-2	1.25	0.403
O=[N+]([O-])c1ccc2c(c1)S(=O)(=O)C=C2 [Stattic]	0.33	0.124
CCCCCCCCC/C(=C\C1=C(C)C(=O)C(OC)=C(OC)C1=O)C(=O)O	0.843	0.862
CC[C@H]1OC(=O)[C@H](C)[C@@H](O[C@H]2C[C@@](C)(OC)[C@@H](O)[C@H](C)O2)[C@H](C)[C@@H](O[C@@H]2O[C@H](C)C[C@H](N(C)C)[C@H]2O)[C@](C)(OC)C[C@@H](C)C(=O)[C@H](C)[C@@H](O)[C@]1(C)O [Clarithromycin]	1.03	1
CN(C)CC[C@H](CSc1ccccc1)Nc1ccc(S(=O)(=O)NC(=O)c2ccc(N3CCN(Cc4ccccc4-c4ccc(Cl)cc4)CC3)cc2)cc1[N+](=O)[O-]	0.906	0.667
NC(=O)Cc1cccc(C(=O)c2ccccc2)c1N [Nepafenac]	1.05	0.987
C[C@H]1COC2=C1C(=O)C(=O)c1c2ccc2c1CCCC2(C)C [Cryptotanshinone]	0.361	0.0832
CC(C)/N=c1\cc2n(-c3ccc(Cl)cc3)c3ccccc3nc-2cc1Nc1ccc(Cl)cc1 [Clofazimine]	0.969	1.11

SMILES	fractional viability (2uM)	fractional viability (10uM)
O=C1Cc2cc(CCN3CCN(c4nsc5ccccc45)CC3)c(Cl)cc2N1 [Ziprasidone HCl]	1.77	1.16
CC(=O)Nc1ccc(NC(=S)NC(=O)c2ccc(C(C)(C)C)cc2)cc1 [Tenovin-1]	0.332	0.307
CCOc1cc(C(=O)N2CCC(N3CCN(C)CC3)CC2)ccc1Nc1ncc2c(n1)N(C1CCCC1)c1ccccc1C(=O)N2C	0.651	0.154
O=C(NOCCO)c1ccc2cncn2c1Nc1ccc(I)cc1F	0.614	0.314
O=c1cc(-c2ccc(O)c(O)c2)oc2cc(O)cc(O)c12 [Luteolin]	1.21	1.12
Nc1ncn([C@H]2C[C@H](O)[C@@H](CO)O2)c(=O)n1 [Decitabine]	1.42	1.45
O=C(Cc1ccc(-c2ccc(OCCN3CCOCC3)cc2)cn1)NCc1ccccc1	0.335	0.266
CN1C2=CC(=O)/C(=N\NC(N)=O)C=C2CC1S(=O)(=O)O (stereo unspecified) [Carbazochrome sodium sulfonate (AC-17)]	1.01	0.965
Cc1cc(Nc2ccc(NC(=O)c3ccc(Nc4ccnc5ccccc45)cc3)cc2)nc(N)n1	0.043	0.0318
C[C@H](NC(=O)Cc1cc(F)cc(F)c1)C(=O)N[C@H](C(=O)OC(C)(C)C)c1ccccc1	0.948	1.05
CNC(CC(=O)O)C(=O)O [NMDA (N-Methyl-D-aspartic acid)]	0.984	0.928
CC(C)N(CCCNC(=O)Nc1ccc(C(C)(C)C)cc1)C[C@H]1O[C@@H](n2ccc3c(N)ncnc32)[C@H](O)[C@@H]1O	0.899	0.929
C[C@]12CC[C@@H]3c4ccc(O)cc4CC[C@H]3[C@@H]1CC[C@@H]2OC(=O)CCC1CCCC1 [Estradiol Cypionate]	1.04	0.533
C[C@H](NC(=O)[C@@H](O)c1cc(F)cc(F)c1)C(=O)N[C@@H]1C(=O)N(C)c2ccccc2-c2ccccc21	1.2	1.02
Brc1ccc([C@H]2CN3CCSC3=N2)cc1 [(-)-p-Bromotetramisole Oxalate]	0.832	0.85
CO[C@@H](C(=O)N1Cc2[nH]nc(NC(=O)c3ccc(N4CCN(C)CC4)cc3)c2C1)c1ccccc1	0.964	0.815
CN1CCN(C2=Nc3cc(Cl)ccc3Nc3ccccc32)CC1 [Clozapine]	0.895	1.08
Cc1c(Cc2ccc3ccccc3n2)c2cc(F)ccc2n1CC(=O)O	1.05	0.915
C=CC(=O)N1CCC(Oc2cc3c(Nc4ccc(Cl)c(Cl)c4F)ncnc3cc2OC)CC1 [Poziotinib (HM781-36B)]	1.1	0.926
Cc1cc(=O)n(-c2ccccc2)n1C [Antipyrine]	0.795	0.925
Clc1ccc(COC(Cn2ccnc2)c2ccc(Cl)cc2Cl)c(Cl)c1 (stereo unspecified) [Miconazole Nitrate]	1.18	0.686
Clc1ccc(COC(Cn2ccnc2)c2ccc(Cl)cc2Cl)c(Cl)c1 (stereo unspecified) [Miconazole]	0.978	0.595
CCCN(CCc1cccs1)[C@H]1CCc2c(O)cccc2C1 [Rotigotine]	0.841	0.767
